“And” between values parts separate entries of the source, which are not always exact repeats. Equal values may be shown once. Out of some 420,000 compounds screened, about 64,000 (15%) were called active. Inconclusive means that the source gave no clear call. Such entries were picked first, then a sample of the others. Calls come from the whole dose curve; as a rule, active = well fitted inhibition curve with a large enough effect; inconclusive = small, poorly fitted or top-dose-only effect; inactive = flat fitted curve, though single readings scatter. Potencies of inconclusive entries are left out as doubtful fits.
Assay: qHTS for Inhibitors of human tyrosyl-DNA phosphodiesterase 1 (TDP1): qHTS in cells in absence of CPT; note: nearly all actives have a fitted effect of over 55% in size
Conditions: DT40 Tdp1-/- hTDP1 cells, no CPT, ATP luminescence, 48 h; activity change, negative = growth inhibition: at 46.2 µM (top of the series) unless noted
How it was run: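 Readout: luminescence from CellTiter-Glo after 30 min in the dark at RT. Cells: DT40 Tdp1-/- with stable hTDP1, 400/well. Exposure: compounds alone, ≥48 hr, 37 °C.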
% is set by controls: 0 for no effect and ±100 for the full control effect; potency is the fitted concentration of half-maximal effect; tags give direction and shape of the fitted curve.

| Compound | Potency | activity change, negative = growth inhibition |
| --- | --- | --- |
| CCOC(=O)CSc1cc(CSc2ccccc2)nc(-c2ccccc2)n1 | inconclusive [inhibitor, single point] | – |
| CC(C)NC(=O)c1cc(-c2ccco2)nn1-c1ccc(Cl)cc1 | inconclusive [inhibitor, single point] | – |
| COc1ccc(OC)c(CN(CCN2CCOCC2)C(=O)Nc2cccc(Cl)c2)c1 | inconclusive [inhibitor, partial curve] | – |
| CCN(CC)c1ccc(S(=O)(=O)N2CCOCC2)cc1NC(=O)C1CC1 | inactive | – |
| O=C(Nc1ccc(Oc2ccc(C(=O)O)c(C(=O)O)c2)cc1)c1cccs1 | inactive | – |
| O=C(CSc1nncc2ccccc12)Nc1cccc(C(=O)O)c1 | inactive | – |
| CCC(C)n1c(=N)c(C(=O)NC2CCCC2)cc2c(=O)n3ccccc3nc21 (configuration not stated) | inconclusive [inhibitor, single point] | – |
| Cc1ccc(N/N=C(/Sc2nnnn2-c2ccccc2)C(=O)c2ccccc2)cc1 | inconclusive [inhibitor, single point] | – |
| Cc1ccc(NC(=O)CSc2cn(CC(=O)N3CCOCC3)c3ccccc23)cc1Cl | active: 20.6 µM | – |
| CC1=NN(c2ccc(C)cc2)C(=O)/C1=C\c1ccc(Br)s1 | inconclusive [inhibitor, partial curve, poor fit] | – |
| CC1=C(CCN2CCN(C3CCCC3)C(CCO)C2)C(C)(C)CCC1 (configuration not stated) | inconclusive [inhibitor, single point] | – |
| CC(C)(C)n1nnnc1C(c1cc2ccccc2o1)N1CCN(C(=O)OCc2ccccc2)CC1 (configuration not stated) | active: 18.4 µM | – |
| Cc1ccc(C(=O)N/C(=C/c2cn(-c3ccccc3)nc2-c2ccccc2)C(=O)O)cc1 | inactive | – |
| Cc1ccc(SCC(=O)Nc2c(Br)cnn2C)cc1 | inconclusive [inhibitor, partial curve] | – |
| COc1ccc(C)cc1NC(=O)CN1CCN(S(=O)(=O)c2ccc(C(C)C)cc2)CC1 | active: 16.4 µM | – |
| COc1ccc(-n2cc(CNC(C)c3ccncn3)c(-c3cccc(F)c3)n2)cc1 (configuration not stated) | active: 25.9 µM | – |
| CCOC(=O)C[C@@H]1OC2CCCCC2N1S(=O)(=O)c1ccc(C)cc1 (some centres not stated) | inconclusive [inhibitor, single point] | – |
| Cc1ccc2c(c1)C(c1ccccc1)N(C(=O)c1ccc(S(=O)(=O)N3CCCC3)cc1)CC(=O)N2 (configuration not stated) | inconclusive [inhibitor, single point] | – |
| Cn1c(=O)c2nc3ccc(NC(=O)C(F)(F)F)cc3nc2n(C)c1=O | inconclusive [inhibitor, single point] | – |
| Cc1nn(-c2ccccc2)c(N2CCCC2)c1/C=N/NC(=S)Nc1ccccc1C(F)(F)F | inconclusive [inhibitor, single point] | – |
| COc1ccc(NC(=O)c2nnn(Cc3ccc(SC)cc3)c2N)c(OC)c1 | inactive | – |
| Cc1ccc(SC[C@H](Cc2ccccc2)N2CCN(C)CCC2=O)cc1 | inconclusive [inhibitor, single point] | – |
| COC(=O)C1=C(C(=O)OC)[C@@H]2N(Cc3ccccc3)c3ccccc3[C@@]23C[C@@H](C(=O)OC)N(C(=O)c2cc(C)oc2C)C3=N1 | active: 18.4 µM | – |

| Compound | Potency | activity change, negative = growth inhibition |
| --- | --- | --- |
| COc1ccc2sc(N(Cc3cccnc3)C(=O)c3cccs3)nc2c1 | active: 18.4 µM | – |
| N=C(N)c1ccc(OCCCCCOc2ccc(C(=N)N)cc2)cc1 | active: 4.11 µM and active: 1.88 µM and active: 2.06 µM | – |
| O=C(O)CC(c1ccccc1)n1cnnn1 (configuration not stated) | inactive | – |
| CC(C(=O)N1CCC(C(N)=O)CC1)N(c1ccc(Oc2ccccc2)cc1)S(C)(=O)=O (configuration not stated) | – | inconclusive: -32.1% [inhibitor] |
| CCCCN(C)C(=O)c1oc2ccc(S(=O)(=O)N3CCCCCC3)cc2c1C | inconclusive [inhibitor, single point] | – |
| C=CCN1C(=O)CSc2ccc(C(=O)OCC)cc21 | inactive | – |
| CCOC(=O)/C(C#N)=C/c1ccc(-c2ccccc2)o1 | inconclusive [inhibitor, single point] | – |
| Cc1ccc(-n2ncc3c(NC4CCCC4)ncnc32)cc1 | inconclusive [inhibitor, single point] | – |
| C[C@H](CO)N1C[C@H](C)[C@@H](CN(C)C(=O)Nc2ccc(C(F)(F)F)cc2)Oc2ccc(NC(=O)Nc3ccc(C(F)(F)F)cc3)cc2C1=O | inconclusive [inhibitor, single point] | – |
| CCOC(=O)c1c(C)[nH]c(C)c1S(=O)(=O)N1CCN(c2cccc(C)c2)C(C)C1 (configuration not stated) | inconclusive [inhibitor, single point] | – |
| CC(=O)c1ccc(NC(=O)Oc2ccccc2)cc1 | inconclusive [inhibitor, partial curve] | – |
| O=C(OC[C@H]1O[C@@H](OC(=O)c2cc(O)c(O)c(OC(=O)c3cc(O)c(O)c(O)c3)c2)[C@H](OC(=O)c2cc(O)c(O)c(OC(=O)c3cc(O)c(O)c(O)c3)c2)[C@@H](OC(=O)c2cc(O)c(O)c(OC(=O)c3cc(O)c(O)c(O)c3)c2)[C@@H]1OC(=O)c1cc(O)c(O)c(OC(=O)c2cc(O)c(O)c(O)c2)c1)c1cc(O)c(O)c(OC(=O)c2cc(O)c(O)c(O)c2)c1 | active: 4.61 µM | – |
| COc1ccc2sc(N(Cc3cccnc3)C(=O)C3COc4ccccc4O3)nc2c1 (configuration not stated) | inconclusive [inhibitor, single point] | – |
| COc1ccc(-c2nn(-c3ccccc3)cc2C(=O)Nc2nc(CC(C)=O)ns2)cc1 | inconclusive [inhibitor, single point] | – |
| O=C(c1ccc(OC(F)(F)F)cc1)c1ncc[nH]1 | inactive | – |
| CCCCCCCNC(=O)C1(CC2CC(c3cccc(Br)c3)=NO2)CCN(C(=O)CCCCCBr)CC1 (configuration not stated) | active: 25.9 µM | – |
| Cc1ccc(-n2c(=O)c(C#N)cc3c(=O)n4ccccc4nc32)cc1C | active: 23.1 µM | – |
| CC(Nc1nc(-c2ccc(F)cc2)cs1)c1nc2cc(Cl)c(Cl)cc2n1CCCO (configuration not stated) | inconclusive [inhibitor, single point] | – |
| FC(F)(F)c1ccc(N2CCOCC2)c(Nc2nc3ccccc3n3cnnc23)c1 | inconclusive [inhibitor, single point] | – |
| Cc1ccc(NN=C2c3ccccc3-c3ccccc32)cc1 | inconclusive [inhibitor, partial curve] | – |
| Cc1nn(Cc2ccc(C(=O)Nc3ccccc3C(F)(F)F)o2)c(C)c1Br | inconclusive [inhibitor, partial curve, poor fit] | – |
| CC1CN(C(=O)c2ccc(COc3ccccc3Cl)o2)CC(C)O1 (configuration not stated) | inconclusive [inhibitor, partial curve] | – |
| Cc1ccc(NC(=O)c2cccc(Cl)c2)nc1 | inactive | – |

| Compound | Potency | activity change, negative = growth inhibition |
| --- | --- | --- |
| Cc1cc(NC(=O)CSc2ccc(-c3nc4cc(C)c(C)cc4[nH]3)cn2)no1 | inconclusive [inhibitor, single point] | – |
| CCCC(=O)NC(c1ccc(C(C)C)cc1)c1ccc2cccnc2c1O (configuration not stated) | active: 2.31 µM | – |
| O=S(=O)(c1ccccc1)C1(S(=O)(=O)c2ccccc2)CCCC1 | inactive | – |
| CCn1cc(C(=O)NCCc2ccc(Cl)cc2)c(=O)c2ccc(C)nc21 | inconclusive [inhibitor, single point] | – |
| CC(C)C(O)P(=O)(OCc1ccccc1)c1ccc(N(C)C)cc1 (configuration not stated) | inactive | – |
| O=C(NCC1(N2CCCCC2)CCCCC1)c1cccc(S(=O)(=O)Nc2ccc(F)cc2)c1 | inconclusive [inhibitor, partial curve] | – |
| CC1CCCCC12NC(=O)N(CC(=O)NCCc1ccc(F)cc1)C2=O (configuration not stated) | inactive | – |
| COc1cc(OC)cc(C(=O)N[C@H](C(=O)OCC(=O)c2ccc3c(c2)NC(=O)CO3)C(C)C)c1 | inactive | – |
| CCC(Sc1n[nH]c(=O)[nH]c1=O)C(=O)OCc1ccccc1 (configuration not stated) | inactive | – |
| O=C(CN1CCC(C(=O)c2ccc3c(c2)OCCO3)CC1)NCc1ccc(F)cc1 | inconclusive [inhibitor, single point] | – |
| CSCCC(C(=O)Nc1c(C)cccc1C)n1c(-c2ccc(-c3ccccc3)cc2)nc2ccccc21 (configuration not stated) | inconclusive [inhibitor, single point] | – |
| CCC(C)NCCCOc1ccc(C)cc1OC (configuration not stated) | inactive | – |
| COc1cc(COc2ccc3c(C)c(Cc4ccccc4)c(=O)oc3c2C)cc(OC)c1OC | active: 18.4 µM | – |
| CC1=NN(c2ccccc2)C(=O)/C1=C/c1ccc(Cl)cc1 | inconclusive [inhibitor, single point] | – |
| COc1ccc(OC)c(C(=O)CSc2nc3ncccc3[nH]2)c1 | – | inconclusive: -30.2% [inhibitor] |
| O=C(O)C(Cc1c[nH]c2ccccc12)N1C(=O)C2C3c4ccccc4C(c4ccccc43)C2C1=O (configuration not stated) | inactive | – |
| CC[C@@H]1[C@H]2CCCC(=O)N3CC[C@@H](C[C@@H]1Nc1ccccc1)[C@@H]23 | active: 17.8 µM | – |
| COc1cc2c(NC3CCN(C)CC3)nc(N3CCCN(C)CC3)nc2cc1OCCCCCCN(C)C | inconclusive [inhibitor, single point] | – |
| Cc1nc(SCc2ccccc2Cl)c(C#N)c(C)c1C | – | inconclusive: -30.7% [inhibitor] |
| COc1cc(F)ccc1-c1cc(C(=O)Nc2cc(OC)c(OC)c(OC)c2)[nH]n1 | inconclusive [inhibitor, single point] | – |
| COCCCNC(=O)C(=O)NCC1CCCN1S(=O)(=O)c1cccs1 (configuration not stated) | inactive | – |

Source: PubChem BioAssay AID686978 (National Center for Advancing Translational Sciences (NCATS), 2013)
